# Data as given in PubChem BioAssay (Tox21).
# Inconclusive results are not listed. Unless noted, calls come from the whole dose curve; as a rule, active = well fitted curve in the direction sought with a large enough effect in the repeat runs; inconclusive = weak or mixed curves; inactive = no such curve, though single readings can be large; an effect the other way counts as inactive or inconclusive. Where a structure was tested more than once in an assay, its records may differ in their call. The source holds more than one record for some entries. The other results are left out here. An entry can have further records. Values that stand side by side repeat one measurement in other runs, samples, wells, individuals or studies. Records carry a tag for their origin. Letters hold for one entry only.
# How the values were obtained:
# [1] = qHTS assay for small molecules that induce genotoxicity in human embryonic kidney cells expressing luciferase-tagged ATAD5 - cell viability (AID 651634; calls by dose curve; note: nearly all actives have a fitted effect of over 25% in size)
# In short: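 Here HEK293T cells with the ATAD5 luciferase reporter are incubated with test compounds for 15.5 hr, and cytotoxicity is then gauged by measuring protease activity in live cells using fluorescence.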
# [2] = qHTS RealTime-Glo MT Cell Viability Assay in HEK293 cells - 0 hour (AID 1224880); note: nearly all actives have a fitted effect of over 45% in size
# In short: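 Kinetic, non-lysing viability readout. Seed HEK293 (600/well) with reagent, incubate 5 h at 37 C/5% CO2, pin 23 nL compound in DMSO, incubate at 37 C, read luminescence at 0, 8, 16, 24, 32, 40 h.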
# [3] = A CellTox Green Cytotoxicity Assay to monitor cytotoxicity in HEK293 cells - 24 hour (AID 1224875); note: nearly all actives have a fitted effect of over 45% in size
# In short: (§1)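 Real-time, in one plate: 600 HEK293 cells/well with dead-cell DNA dye, pinned compound after 5 h, 37 C incubation over 40 h; viable cells give no appreciable fluorescence.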
# [4] = A CellTox Green Cytotoxicity Assay to monitor cytotoxicity in HEK293 cells - 16 hour (AID 1224888); note: nearly all actives have a fitted effect of over 35% in size
# In short: as §1
# [5] = qHTS assay to identify small molecule antagonists of the progesterone receptor (PR) signaling pathway - cell viability counter screen (AID 1346798); note: nearly all actives have a fitted effect of over 50% in size
# In short: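 In the same plates used for the beta-lactamase readout, cell viability of compound- and R5020-treated PR-UAS-bla HEK293T cells (16 hr, 37C) was assessed by CellTiter-Glo luminescence.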
# [6] = qHTS assay to identify small molecule antagonists of the thyroid receptor (TR) signaling pathway (AID 743065); note: nearly all actives have a fitted effect of over 55% in size
# In short: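 GH3.TRE-Luc rat pituitary cells carrying two TR response elements driving luciferase were plated for 4 h, given compound plus 1 nM T3 (final), and incubated 23.5 h at 37 C. ONE-Glo luminescence measured reporter inhibition; CellTiter-Fluor fluorescence tracked cytotoxicity.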
# Potency is the fitted concentration of half-maximal effect.
smiles,measurement,setting,value
COC(=O)C1=C(C)NC(C)=C(C(=O)OC)C1c1ccccc1[N+](=O)[O-],Potency,[1],inactive [sample A] and active: 54.5 µM [sample B]
same,Potency,[2],active: 24.6 µM [sample A] and inactive [sample B]
O=c1n(CCO)c(=O)n(CCO)c(=O)n1CCO,Potency,[3],inactive [sample A] and active: 38.9 µM [sample B]
same,Potency,[4],inactive [sample A] and active: 38.9 µM [sample B]
same,Potency,[5],inactive [sample A] and active: 54.5 µM [sample B]
COC(=O)c1c(Cl)c(Cl)c(C(=O)OC)c(Cl)c1Cl,Potency,[6],inactive [sample A] and active: 48.6 µM [sample B]
same,Potency,[3],inactive [sample A] and active: 43.6 µM [sample B]
CCCCOCCOCCOCc1cc2c(cc1CCC)OCO2,Potency,[6],inactive [sample A] and active: 30.6 µM [sample B]
